Experimental data reported in publication PMC4336329 (PLoS ONE, 2015).
About 14,000 (4.5%) of roughly 310,000 compounds showed an effect of 50% or more. Effects have a minus sign here. Some of the results follow.

target: human ether-à-go-go-related gene (hERG) potassium channel (human, UniProt Q12809); experiment: primary screen, population patch clamp on CHO cells stably expressing hERG
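Further: peak tail current of the secondary pulse compared with the same well before compound.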

Sequence of human ether-à-go-go-related gene (hERG) potassium channel (Q12809 whole entry, looked up): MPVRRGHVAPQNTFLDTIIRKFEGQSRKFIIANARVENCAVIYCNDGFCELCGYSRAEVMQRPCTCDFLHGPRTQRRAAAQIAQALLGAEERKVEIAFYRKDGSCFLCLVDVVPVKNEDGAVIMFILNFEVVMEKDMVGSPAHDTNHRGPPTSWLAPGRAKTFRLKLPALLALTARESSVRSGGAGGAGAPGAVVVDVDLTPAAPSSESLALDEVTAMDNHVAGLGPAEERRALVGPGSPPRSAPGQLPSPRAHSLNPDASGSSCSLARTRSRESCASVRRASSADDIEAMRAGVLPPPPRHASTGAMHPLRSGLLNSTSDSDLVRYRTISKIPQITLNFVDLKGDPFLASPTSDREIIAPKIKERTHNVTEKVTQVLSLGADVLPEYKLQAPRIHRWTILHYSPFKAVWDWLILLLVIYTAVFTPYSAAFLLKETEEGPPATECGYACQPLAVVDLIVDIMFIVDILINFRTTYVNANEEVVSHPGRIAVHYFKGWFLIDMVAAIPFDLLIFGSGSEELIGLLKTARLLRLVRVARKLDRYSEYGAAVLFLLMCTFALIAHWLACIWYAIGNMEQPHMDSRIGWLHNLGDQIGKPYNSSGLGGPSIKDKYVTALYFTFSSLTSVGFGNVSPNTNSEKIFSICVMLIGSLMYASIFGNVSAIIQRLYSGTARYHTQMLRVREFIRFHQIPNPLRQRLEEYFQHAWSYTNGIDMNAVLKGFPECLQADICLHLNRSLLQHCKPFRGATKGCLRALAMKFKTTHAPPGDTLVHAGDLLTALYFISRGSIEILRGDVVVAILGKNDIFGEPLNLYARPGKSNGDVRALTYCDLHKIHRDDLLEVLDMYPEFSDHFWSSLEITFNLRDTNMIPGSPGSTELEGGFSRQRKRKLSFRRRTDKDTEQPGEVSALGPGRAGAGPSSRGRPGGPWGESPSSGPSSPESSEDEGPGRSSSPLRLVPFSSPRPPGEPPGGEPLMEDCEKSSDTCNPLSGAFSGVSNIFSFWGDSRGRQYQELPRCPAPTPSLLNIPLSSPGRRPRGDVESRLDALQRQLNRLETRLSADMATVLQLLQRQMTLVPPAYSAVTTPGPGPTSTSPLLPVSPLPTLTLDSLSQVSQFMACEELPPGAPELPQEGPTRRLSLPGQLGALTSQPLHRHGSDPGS

Structure (SMILES) | hERG current change (%, negative = inhibition) at 10uM [%]
CC1=NN(C(=S)Nc2ccccc2)C(c2ccccc2)C1 (stereo not shown) | 2.86
Cc1cccc(NS(=O)(=O)c2ccc(C3CCCCC3)cc2)c1 | 15
Cc1nn2c(NCCCN(C)C)c3c(nc2c1-c1ccccc1)CCC3 | -59.4
COC(=O)c1cccc(C(=O)N2CCC(CO)(Cc3ccccc3Cl)CC2)c1 | -23.1
COCCC(=O)N1CCCC(C(=O)c2ccc3c4c(cccc24)CC3)C1 (stereo not shown) | -17.8
CC(=O)C1=NOC(CNc2ncc(C(F)(F)F)cc2Cl)C1 (stereo not shown) | 7.33
CC(=O)NNC(=O)C(O)(c1ccccc1)c1ccccc1 | 4.55
CC(C)(C)C(=O)Nc1ccccc1C(=O)NCCC(=O)Nc1ccccc1 | -4.45
CC(=O)NC(c1ccco1)c1cc(Cl)c2ccccc2c1O (stereo not shown) | -5.91
COc1ccc(C2CC(=O)C3=C(C2)Nc2ncnn2C3c2ccccc2)cc1 (stereo not shown) | -18.2
Cn1c(SCc2cc([N+](=O)[O-])cc3c2OCOC3)nnc1-c1ccccn1 | 5
NNc1nc2sc3c(c2c(=O)n1-c1ccccc1)CCCC3 | -10.5
O=C1C2CCC(C(O)C2)N1Cc1ccccc1 (stereo not shown) | -4.82
CC1=C(C(=O)Nc2ccc(C)cn2)C(c2cnn(C)c2)C2=C(CCCC2=O)N1 (stereo not shown) | 7.53
CC(=O)c1c(C)[nH]c(C(=O)OCC(=O)NCCc2ccc(F)cc2)c1C | -16.7
Cc1ccc2c(COC(=O)c3ccc(C)c(C)c3)cc(=O)oc2c1 | 25.7
O=S(=O)(Nc1ccccc1N1CCCCC1)c1ccccc1 | -4.76
Cc1c(NC(=O)c2cccc(F)c2)c(=O)n(-c2ccccc2)n1C | 20.5
COc1ccc(NC(=O)C2CCN(c3nc(-c4ccc(OC)cc4)no3)CC2)cc1 | 16.1
CN(C(=O)c1ccc(NC(=O)Cc2cccc(NC(=O)C3CCCN(C(=O)C4CC4)C3)c2)cc1)C1CCCC1 (stereo not shown) | 1.52
O=C1NCCN(Cc2ccc(Cl)c(F)c2)C1CC(=O)N1CCCCO1 (stereo not shown) | 7.42
CCC(=O)N1c2ccc(S(=O)(=O)CCC(=O)NC3CCCC3)cc2CC1C (stereo not shown) | -6.73

Structure (SMILES) | hERG current change (%, negative = inhibition) at 10uM [%]
CC1(c2nnc(-c3ccc(F)cc3)o2)CC(c2cccc(Cl)c2)=NO1 (stereo not shown) | -11.1
Nc1c(C(=O)NCCCc2ccccc2)c2nc3ccccc3nc2n1Cc1cccs1 | -3.23
COc1cc(NC(=O)c2ccccc2Cl)c(OC)cc1NC(=O)CN1CCCCC1 | -30.1
Cc1cccc(OCCCN2C(=O)C(=O)c3cc(C)ccc32)c1 | -14.7
COC(=O)/C=C1/N/C(=N\c2nc(C)cc(C)n2)N(c2cccc(C)c2)C1=O | -1.75
COC(=O)Nc1nnc(COc2cccc(C)c2)s1 | -5.23
COc1ccccc1N1CCN(CC(O)COc2ccc(C)cc2C)CC1.Cl (stereo not shown) | -73.1
CCOC(=O)Cn1c(-c2cccnc2Cl)nc2cc(Cl)c(Cl)cc21 | -16.6
Cc1ccc(NC(=S)N(N)CCO)cc1 | 13.5
O=C1Nc2ccccc2CCC1Sc1nnc(-c2ccc(Cl)cc2)s1 (stereo not shown) | -1.68
CCN1CCN(S(=O)(=O)c2ccc(OC)cc2)CC1 | 6.86
Cc1cccc(C)c1NC(=O)CSCCO | 20
CC(C)c1ccc(C(C)NC(=S)NC2CCCCC2)cc1 (stereo not shown) | 8.11
Cc1ccc(CC(=O)Nc2ccccc2-c2ccccc2)cc1C | -2.7
CCOc1ccc(/C=N/NC(=O)C2CCCC2)c(OCC)c1 | -24.2
N#Cc1cnc2c(-c3ccccc3)c(-c3ccccc3)nn2c1N | -1.89
COc1ccccc1Oc1ccc2c(c1)C(=O)N(c1cccc(O)c1)C2=O | 21.8
CC(C)c1ccc2c(c1)c(SC(C)(C)C)c(CC(C)(C)C(=O)[O-])n2Cc1ccc(Cl)cc1.[Na+] | -8.58
O=C(c1ccc(Cl)cc1)N1CCCC(c2ccccc2)=N1 | -4.76
CCN(CC)S(=O)(=O)c1cccc(-c2nnc(SCC#N)n2Cc2ccccc2)c1 | -25.5
CCC1(c2ccccc2)NC(=O)N(CC(=O)NCc2ccccc2OC)C1=O (stereo not shown) | 18.1
